# Laboratory results: the supplement of paper PMC10338343
# ± gives the standard deviation. Over roughly 5,500 sequences, “pre-steady-state target cleavage rate” has its median near 0.1; the highest 2% begin near 0.64. The list shows a part of the results, in another mix than the full data.
# System: MIWI (PIWIL1) piRISC loaded with piRNA #2 (30 nt)
# Test: pre-steady-state target cleavage rate (min^-1); MIWI and MILI are mouse PIWI proteins and EfPiwi is from a freshwater sponge; tags in brackets are library labels; higher = faster piRNA-guided slicing of the target
# Details: guide: piRNA #2 5'p-UUAGGUAACCCAGUAGAUCCAGAGGAAUUC; auxiliary factor: 500 nM mouse GTSF1
# Summary of the method: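 In HEPES–potassium acetate buffer at 33 °C, […] transcribed, DNA-blocked target RNA library was mixed with 1 nM active affinity-purified piRISC carrying one synthetic guide, with or without 500 nM GTSF1 partner protein, for 0–8 or 0–960 min. Uncleaved targets were sequenced and normalised to depth and to weakly complementary targets; three trials were pooled and k3 was capped at 0.0001 min^-1. The pre-steady-state cleavage rate followed from a burst-and-steady-state fit.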
row,Sequence,pre-steady-state target cleavage rate
1,CUUAUCCUCAGGAUCUAGUGGGUUACCUAA,0.172 ± 0.032
2,CUUUUCCUCUGGAUCUAGAGGGUUACCUAA,0.022 ± 0.0052
3,CUUAAGCUCUGUAUCUACUGGGUUACCUAA,0.154 ± 0.029
4,CUUUUCCUCUGGAUACUACUGGGUUACCUAA,0.377 ± 0.047
5,CUUAAGGAGACGAUCUACUGGGUUACCUUAA,0.00391 ± 0.0037
6,CUUAUCCUGUGGUUCUACUGGGUUACCUAA,0.233 ± 0.017
7,CUUAAGGAGACGAUCUUCUGCGUUACCUAA,0.00297 ± 0.0027
8,CUUAUCUUCUGGAUCUACUGGGUUACCUAA,0.367 ± 0.035
9,CUUAUCCUCUCGAUCAACUGGGUUACCUAA,0.508 ± 0.033
10,CUUAUCCUCACGAUCUACUGGGUUACCUAA,0.538 ± 0.041
11,CUUAAGGUCUGGAUCUACCGGGUUACCUAA,0.0787 ± 0.0093
12,CUUAAGGUCUGGAUCUAAUGGGUUACCUAA,0.125 ± 0.013
13,CUAUUCCUCAGGAUGUACUGGGUUACCUAA,0.577 ± 0.053
14,CUUAACCUGUGGAUCUACUCGGUUACCUAA,0.0531 ± 0.011
15,CUAUUCCCUCUGGAUCUACUGGGUUACCUAA,0.339 ± 0.049
16,CUUAUCCUCAGCAUCUACUGGGUUACCUAA,0.315 ± 0.034
17,CUUAAGGACUGGAUGUACUGGGUUACCUUA,0.0625 ± 0.043
18,CUUAAGGAGACCUAGAUGACGGUUACCUCAA,< 0.0001
19,CUUUUCCUCUGGAACUUCUGGGUUACCUAA,0.359 ± 0.036
20,CUUAAGGACUAGGAUCUACUGGGUUACCUAA,0.0895 ± 0.025
21,CUAUUCCUCUGGAUCUACUGGGUUUCCUUA,0.263 ± 0.062
22,CUUAAGCUCUGGAUCAACAGGGUUACCUAA,0.0381 ± 0.01
23,CUUAACCUGUGGUUCUACUGGGUUACCUAA,0.213 ± 0.021

row,Sequence,pre-steady-state target cleavage rate
1,CUUAAGGUCUUGAUCUACUGGGUUACCUAA,0.382 ± 0.037
2,CUUAUGCUCUGGAUCUACUGCGUUACCUAA,0.289 ± 0.034
3,CUUAUCCUCUCGAUCUUCUGGGUUACCUAA,0.625 ± 0.057
4,CUUUUCCUCAGGAUCUACUGGCUUACCUAA,0.0722 ± 0.015
5,CUUUUCCUCUGGAUCUACGGGGUUACCUAA,0.0842 ± 0.0056
6,CUUAAUCUCUGGAUCUACUGGGUUACCUAA,0.194 ± 0.034
7,CUUAUCCUCUGGAUCUACUGGGGUACCUAA,0.126 ± 0.033
8,CUAUUCGUCUGGAUCUAGUGGGUUACCUAA,0.0616 ± 0.011
9,CUUAUCCACUGGAUCUACUCGGUUACCUAA,0.0581 ± 0.016
10,CUUAUCCUCUGGAUCUACUGCGAUACCUAA,0.224 ± 0.033
11,CUUAAGGAGUGGAUCUACUGGUUUACCUAA,0.056 ± 0.02
12,GAAUUCCUCUGGAUCUACUGGGUUACCUAC [g2:g30:cont:t1C],0.189 ± 0.031
13,CUUAAGCUCUGGUACUACUGGGUUACCUAA,0.249 ± 0.019
14,CUUAAGGAGUGGAUCUACUGGGUUACCUAU [g2:g21:cont:t1U],0.139 ± 0.023
15,CUUAAGGAGUGGAUCUACUGGGUUAGCUAA,0.0313 ± 0.011
16,CUUAACCUCUGGAUCUACUGGGUUAGCUUA,0.0895 ± 0.013
17,CUAUUCCUCUGGAUCUACUGGGAAUCCUAA,0.184 ± 0.06
18,CUUAACCUCUGGAUCUACUGGGUUUCGUAA,0.101 ± 0.016
19,CUUAAGGAGUUGAUCUACUGGGUUACCUAA,0.00536 ± 0.0017
20,CAAUUCCACUGGAUCAACUGGGUUACCUAA,0.415 ± 0.044
21,CUUAUCCACUGGAUCUACUGGGUAACCUAA,0.256 ± 0.042
22,CUUAAGCUCUGGAUCUACAGGGUAACCUAA,0.039 ± 0.0086
23,CUUUUCCUCUGGUUCUACUGGGUAACCUAA,0.0949 ± 0.021

row,Sequence,pre-steady-state target cleavage rate
1,CUUAAGGACAGGAUCUACUGGGUUAGCUAA,0.00714 ± 0.0063
2,CUUAAGGUCUGGAUCUACUGGGUUCACCUAA,0.117 ± 0.019
3,CAAUACCUCUGGAUCUACUGCGUUACCUAA,0.488 ± 0.063
4,CUUAAGGUCUGGUCUACUGGGUUACCUAA,0.00625 ± 0.0034
5,CUAUUCCUCUGGAUCUACUGGGUUUGGUAA,0.0833 ± 0.031
6,CAAUAGGUCUGGAUCUACUGGGUUACCUAA,0.337 ± 0.025
7,CAAUUCGUCUGGAUCUUCUGGGUUACCUAA,0.203 ± 0.027
8,CUUUUCCUCUGGAUCUACUGGGUUAGCAAA,0.112 ± 0.026
9,CUAUUCCUUCUGGAUCUACUGGGUUACCUAA,0.506 ± 0.049
10,GUAUUCCUCUGGUUCUACUGGGUUACCUAA,0.0955 ± 0.034
11,CUUAAGGAGUGGAUGUACUGGGUUACCUUA,0.0163 ± 0.011
12,CUUAUCCUCUGGAUCUACACGGUUACCUAA,0.211 ± 0.026
13,CUUAAGGUGUGGAUCUACUGGGUUACCAAA,0.0404 ± 0.017
14,CAAUUCCUCUGCAUCUACUGGCUUACCUAA,0.149 ± 0.015
15,CUUAAGCUCUGGAACAACUGGGUUACCUAA,0.138 ± 0.02
16,CUUAAGGAGUGGAUCUACUGGGUUAACUAA,0.0555 ± 0.02
17,CAAAUCCUCUGGUUCUACUGGGUUACCUAA,0.79 ± 0.044
18,CUUAAGCUCUGGAUGUACUGGGUUACGUAA,0.414 ± 0.038
19,CAAUUCCUCUGGAUCUACAGGGUUACCUAA,0.308 ± 0.03
20,CUAUUCCUCUGGAUCUUCUCGGUUACCUAA,0.0723 ± 0.011
21,CUUUUCCUCUGGAUCUUGUGGGUUACCUAA,0.00502 ± 0.0027
22,CUUAAGCUCAGGAUCUACUGGGUUACGUAA,0.25 ± 0.036
23,CUUAACCUCUGGAUCCACUGGGUUACCUAA,0.0949 ± 0.011

row,Sequence,pre-steady-state target cleavage rate
1,CUUAUCCUCCGGAUCUACUGGGUUACCUAA,0.61 ± 0.1
2,CUUUUCGUCUGGAUCUACUGGGUAACCUAA,0.129 ± 0.024
3,CUUUUCCUCUGGAUCUACUGGGUUUCCUAA,0.414 ± 0.07
4,CUUUUCCUCUGGAUCUACAGGCUUACCUAA,0.026 ± 0.0064
5,GAAUUCCUCUGGAUCUACUGGGUUUGCUAA,0.414 ± 0.048
6,CUUAUCCUCUGGAUCUACAGCGUUACCUAA,0.155 ± 0.019
7,CUUAAGCUCUGGAUCUACUCGGUAACCUAA,0.00645 ± 0.0057
8,CUAUUCCUCUGGAUCAACUGGGUUACCUUA,0.295 ± 0.039
9,GAAUUCGUCUGGAUCUACUGGGUUUCCUAA,0.469 ± 0.06
10,CUUUUCCUCUGGAUGUACUGCGUUACCUAA,0.477 ± 0.084
11,CUUAACCACUGGAUCUACUGGGUUAGCUAA,0.0758 ± 0.02
12,CUAUUCCUGUGGAACUACUGGGUUACCUAA,0.213 ± 0.054
13,CUUAUCCUCUGGUUCUACUGGGUUACGUAA,0.454 ± 0.056
14,CAAUUCCUCUGGAUCUACAGGGUAACCUAA,0.129 ± 0.023
15,CUAUUGCCUCUGGAUCUACUGGGUUACCUAA,0.215 ± 0.03
16,CAAUUCCUCUGGAUCGUACUGGGUUACCUAA,0.00821 ± 0.0059
17,CUUAAGGAGACGAUCUACUGGGUUACCUAAA,0.00455 ± 0.0028
18,CUUUUCCUCUGGAUCUAGUGGGUUUCCUAA,0.058 ± 0.01
19,CUUAACCUCUGGAUCUACUCGGUAACCUAA,0.0105 ± 0.0073
20,CUUAAGGUCUCGGAUCUACUGGGUUACCUAA,0.2 ± 0.032
21,CUUAAGGUCUGCAUCUACUCGGUUACCUAA,0.02 ± 0.017
22,CUUAAGGUCGGGAUCUACUGGGUUACCUAA,0.0779 ± 0.022
